# ± gives the standard deviation of the averaged measurements. Some of the results follow.
# System: PfAP2-EXP AP2 domain (GST-tagged)
# Experiment: gcPBM binding intensity (ln(normalized median fluorescence intensity)); higher = stronger DNA binding
# Outline: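 GST-tagged P. falciparum DNA-binding domains produced in E. coli were incubated for 1 h on an Agilent 4 × 180k array of primer-extended double-stranded 36-bp intergenic genomic probes with negative controls. Binding intensity is the highest Masliner-normalised natural-log median intensity across replicate spots of either probe orientation, with bound protein detected by Alexa488 anti-GST antibody at 488 nm.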
row,Sequence,gcPBM binding intensity (ln)
1,TAAATAGCCAAACGCACACCCACAAAAAAAAAAAAA [CACACA_site1554],8.25 ± 0.35
2,AGAGAATATTTCCACACATGCAAATGTTATATGTAA [TGCATGCA_site282],8.68 ± 0.13
3,ATTGATTTTTAATATACACACATAAGGACCACAAAA [CACACA_site4344],8.99 ± 0.26
4,AATTATATTAATTCTTCATTACATTTTAAAATATTA [XGTACX_negctrl_site510],8.46 ± 0.49
5,AATACGCATTTTAGTACACACTTAAAAAGTTATTTT [CACACA_site7401],8.415 ± 0.078
6,TTATAATATAAAAATAAATAAATAAATAAATAAATA [CACACA_negctrl_site1587],8.55 ± 0.11
7,TTCGTTATATTTTGATGTACTGATTCATATATATAT [XGTACX_site1835],9.435 ± 0.007
8,TGCTATTATTTATGTACACACCAATTTATTTATAAT [CACACA_site6029],8.89 ± 0.29
9,GGAAAGACATTACACAGTACCCAGGAAATCTACGGA [XGTACX_site2002],8.49 ± 0.61
10,TAATATTTATTCTATTGTACATAAAATATATATATA [XGTACX_site7132],9.225 ± 0.078
11,ATAAATAAAAAACACACACACACACCCAAAAAAAAA [CACACA_site2624],8.68 ± 0.51
12,TCAACATTTAAAAATAGTACTCATAAACCTTTCGAA [XGTACX_site4111],8.13 ± 0.38
13,ATTATATATGTATAAATATGCTATATATATATATAT [GTGCAC_negctrl_site430],10.3 ± 0.17
14,TATACATATGTATGCACACATACATACACATAGAAT [CACACA_site3480],8.44 ± 0.33
15,TATATTATTTAAAAAGTGCAGTTACAAGATGAACCT [GTGCAC_site9641],8.37 ± 0.18
16,TTTGGAATATAATATTGTACATATTATATATATATA [XGTACX_site3187],9.63 ± 0.27
17,TTTTTTTTTAAATATACACACACATTTATACATATA [CACACA_site9122],8.38 ± 0.32
18,AATGTATTTATTTTTTGTACATATCGTGTGTGTATT [XGTACX_site1009],8.77 ± 0.42
19,TTCTATTATGTGACTCAATTCTTCATGGGTGTATAA [TGCATGCA_negctrl_site140],8.61 ± 0.45
20,TTATTTATTTTTATATGTACACAAAAAAAAAAAAAA [XGTACX_site1459],8.43 ± 0.35
21,AATATATATAACGTTGGTACACAAAAATTATTAAAT [XGTACX_site8572],8.9 ± 0.37
22,TTTTTTTTTTTTTTAACACACATATATATATTTTTC [CACACA_site1922],8.34 ± 0.52

row,Sequence,gcPBM binding intensity (ln)
1,CCTCATCCACTATGCACACAAAAAAGAAATACACTA [CACACA_site3422],8.88 ± 0.21
2,TTCTCAAATATAATAAAATTATAAAGTGACCTAACT [GTGCAC_negctrl_site493],8.31 ± 0.38
3,TAATGGATTATACGTGCACACATATATACAAATAAA [CACACA_site8116],9.36 ± 0.52
4,TTCTTCAATAATAAGTGTACATATGCATACATTATA [XGTACX_site1502],8.71 ± 0.25
5,ATAATAAAATAAGAAGCACACAAATATTATATATAA [CACACA_site9319],8.79 ± 0.39
6,AATTAAAAAATTTATGCACACTTTAAAAAAAAAAAA [CACACA_site5962],8.34 ± 0.29
7,GATATGATATGATATGCATGTAACAAATTTTTTTAA [TGCATGCA_site268],8.98 ± 0.39
8,AAAAAAAAATATATATATATATATATATTTATGTAT [GTGCAC_negctrl_site483],8.38 ± 0.25
9,AAAAAAAATAAAAATAGTACTCAAAAAATTATGAAT [XGTACX_site3073],8.54 ± 0.38
10,ATATTAATTTCTTATGCATGTTCTACCAAATTGTAT [TGCATGCA_site38],9.12 ± 0.66
11,AATTATTCTCTTTTCATTTGAACAATATGCTTAAAA [CACACA_negctrl_site995],8.64 ± 0.54
12,AATATTTTTTAAATGTGTACATAGGTATAGCACACA [XGTACX_site8690],8.455 ± 0.035
13,GACTGCACTTTAAGCACACAAATATATTTTTTTTAT [CACACA_site1249],8.72 ± 0.23
14,ACAAATATGAGAAATTGTACATATAATAAAATAGTA [XGTACX_site2573],8.63 ± 0.37
15,AGTCATATAAATAGTAGTACTGTGTGTGAAGAAAAA [XGTACX_site5056],8.91 ± 0.38
16,ACACATTCGAAAAATTGTACATATATAACAGAATAT [XGTACX_site7106],8.65 ± 0.46
17,ATATTAGTCGAATGATGTACACACATACAAAACATT [XGTACX_site8613],8.57 ± 0.42
18,ATCAAATTTGGACATGCATGTGTGTGTAAAACCATG [TGCATGCA_site309],9.98 ± 0.18
19,TAATTAAAAAATAAAAAAAAAAAAAATTAAAACAAA [CACACA_negctrl_site500],8.15 ± 0.51
20,TGCTAATAATTATTTGTTTAGCAACAAAAAAAAAAA [CACACA_negctrl_site1541],8.11 ± 0.6
21,TTCTTTTTAATTTATTTTTTCTTATAACAAGAAAAC [CACACA_negctrl_site201],8.61 ± 0.41
22,GTACATACATAAAACACACACATATATATATATATA [CACACA_site1826],10.2 ± 0.75

# — the supplement of paper PMC11417369
